# Laboratory results from the antibiotic and cytotoxicity screens of Wong et al. (2023).
# Some of the results follow.
# Tests used:
# [1] = test system: HSkMC (human skeletal muscle cells); assay: cytotoxicity call (relative viability < 0.9); conditions: 10 µM
# [2] = test system: HepG2; assay: cytotoxicity call (relative viability < 0.9); conditions: 10 µM
# [3] = test system: S. aureus RN4220; assay: growth inhibition call (relative growth <= 0.2); conditions: 50 µM
SMILES,cytotoxicity call [1],cytotoxicity call [2],growth inhibition call [3]
Nc1ncnc2c1ncn2CCOCP(=O)(O)O,inactive,inactive,inactive
CC1(C)C(C=C(Cl)Cl)C1C(=O)OCc1cccc(Oc2ccccc2)c1 (configuration not stated),inactive,inactive,inactive
O=C(O)C(Cl)Cl.[NaH],inactive,inactive,inactive
Cc1cccc(CC2(N)CC2)c1,inactive,inactive,inactive
CN(C)C(=O)[C@]1(Cc2ccccc2CN=[N+]=[N-])N=C(c2ccc(OCCCO)cc2)O[C@@H]1c1ccccc1N=[N+]=[N-],inactive,inactive,inactive
O=C(NC[C@@H]1CC[C@H]2NC[C@H]2O1)C1CCCC1,inactive,inactive,inactive
C[C@H](CO)N1C[C@H](C)[C@@H](CN(C)C(=O)Oc2cccc3ccccc23)OCc2cn(nn2)CCCC1=O,inactive,inactive,inactive
CCCCCC1C(=O)OC(C)C(NC(=O)c2cccc(NC=O)c2O)C(=O)OC(C)C1OC(=O)CC(C)C (configuration not stated) [ANTIMYCIN A (A1 shown) ],inactive,active,–
CCC(C)C1OC2(C=CC1C)CC1CC(CC=C(C)C(OC3CC(OC)C(OC4CC(OC)C(O)C(C)O4)C(C)O3)C(C)C=CC=C3COC4C(O)C(C)=CC(C(=O)O1)C34O)O2 (configuration not stated) [ABAMECTIN (avermectin B1a shown) ],inactive,active,–
CCC(C)C1OC2(C=CC1C)CC1CC(CC=C(C)C(OC3CC(OC)C(OC4CC(OC)C(O)C(C)O4)C(C)O3)C(C)C=CC=C3COC4C(O)C(C)=CC(C(=O)O1)C34O)O2 (configuration not stated) [ABAMECTIN (avermectin B1a shown)],–,–,inactive
"C[C@]12CCC(=O)C[C@@H]1CC[C@@H]1[C@@H]2CC[C@]2(C)C(=O)CC[C@@H]12 [5alpha-ANDROSTAN-3,17-DIONE]",–,–,inactive
CC(C)(C)c1ccc(O)cc1,–,–,inactive
"C[C@]12CCC(=O)C[C@@H]1CC[C@@H]1[C@@H]2CC[C@]2(C)C(=O)CC[C@@H]12 [5alpha-ANDROSTAN-3,17-DIONE ]",inactive,inactive,–
COc1ccc(CCN)cc1OC,inactive,inactive,inactive
Cn1cnc(CCN)c1,inactive,inactive,inactive
C[C@H]1O[C@H](O[C@H]2[C@H](O)[C@@H](O)[C@@H](O)[C@H](O)[C@@H]2O)[C@@H](N)C[C@@H]1NC(=N)C(=O)O,inactive,inactive,inactive
CN1[C@@H]2C[C@@H](O)C[C@H]1[C@@H]1O[C@@H]12,inactive,inactive,inactive

SMILES,cytotoxicity call [1],cytotoxicity call [2],growth inhibition call [3]
"CC1(C)C(=O)C2OC2C2(C)C1CC(O)C1(C)C2CCC2(C)C(c3ccoc3)OC(=O)C3OC321 (stereo not drawn) [1,2alpha-EPOXYDEACETOXYDIHYDROGEDUNIN]",–,–,inactive
C=C(C)C1Cc2c(ccc3c(=O)c4c(oc23)COc2cc(OC)c(OC)cc2-4)O1 (configuration not stated),inactive,inactive,inactive
COc1ccc(C(=O)O)cc1OC,inactive,inactive,inactive
CC(=O)Nc1ccc(Cl)cc1C,inactive,inactive,inactive
CCC12C=CCN3CCC4(c5ccc(OC)cc5N(C)C4C(O)(C(=O)OC)C1OC(C)=O)C32 (configuration not stated),inactive,inactive,inactive
C[C@@H]1[C@H](O)[C@@H](C)/C=C\C=C/CC\C=C/C=C\C=C/C=C\[C@@H](O[C@@H]2O[C@H](C)[C@@H](O)[C@H](N)[C@@H]2O)C[C@@H]2O[C@](O)(C[C@@H](O)[C@H](O)CC[C@@H](O)C[C@@H](O)C[C@@H](O)CC(=O)O[C@H]1C)C[C@H](O)[C@H]2C(=O)O,inactive,inactive,inactive
Cc1ncc(CNC(=O)N(CCCl)N=O)c(N)n1.Cl,inactive,inactive,inactive
CC12CCC3C(CCC4(O)CC(O)CCC34C=O)C1(O)CCC2C1=CC(=O)OC1 (configuration not stated),active,active,inactive
N=C1NC(=O)N2CC12 (configuration not stated),inactive,inactive,inactive
Nc1ccccc1N1CCNCC1,inactive,inactive,inactive
NC(=O)c1cn([C@H]2O[C@@H](CO)[C@H](O)[C@@H]2O)c2ncnc(N)c12,active,active,inactive
"CC1(C)C(=O)C2OC2C2(C)C1CC(O)C1(C)C2CCC2(C)C(c3ccoc3)OC(=O)C3OC321 (stereo not drawn) [1,2alpha-EPOXYDEACETOXYDIHYDROGEDUNIN ]",inactive,inactive,–
COP(=O)(OC)OC(Br)C(Cl)(Cl)Br (configuration not stated),inactive,inactive,inactive
CCOC(=O)c1c(CN2CCN(Cc3ccccc3)CC2)n(Cc2ccccc2)c2cc(Br)c(O)cc12,active,inactive,inactive
CCS(=O)(=O)N1C[C@@H]2CCN[C@@H]2C1,inactive,inactive,inactive
C1CC(NC2CCOCC2)CCO1,inactive,inactive,inactive
